Data: the supplement of paper PMC11417369
Some of the results follow.

Test system: PfSIP2 AP2 domain 1 (GST-tagged)
Assay: gcPBM binding intensity (ln(normalized median fluorescence intensity)); higher = stronger DNA binding
Method in brief: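 Binding of GST-tagged P. falciparum DNA-binding domains, expressed in E. coli and used at about 25 μg on average, was carried out for 1 h in 1× PBS containing 1% milk, 0.2 mg/ml BSA, 0.5% salmon testes DNA and 0.03% Triton X-100. The target was an Agilent 4 × 180k array of primer-extended double-stranded 36-bp intergenic genomic probes plus negative controls, read with Alexa488 anti-GST antibody at 488 nm. Binding intensity is the highest Masliner-normalised natural-log median intensity across replicate spots of either probe orientation.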

Row | Sequence | gcPBM binding intensity (ln)
1 | TATATACATATATGCACACAAAAAAATATATATTTT [CACACA_site1729] | 7.3
2 | AAATGTAGAAAAAGTTGTACACTGTTTCAAAAATAA [XGTACX_site1063] | 6.97
3 | AAAATTTAATATAATGCACACATAAAACAAAAACAA [CACACA_site8071] | 8.2
4 | TTTAAAGTTTTATACACACACCAAAGTTATTCTAAT [CACACA_site6432] | 6.78
5 | CAATGAAAAATAATGAGTACATAGTTAATAAAGATA [XGTACX_site72] | 6.97
6 | ATAATTAAAATTAAATGTACTTTTTTATATATTTTT [XGTACX_site2209] | 6.82
7 | AATTTCTTTTTCGATATACACACTGTATGTGTCTAA [CACACA_site3975] | 6.94
8 | AACGTGTATTTATATTGTACACATTCATACATCAAA [XGTACX_site3644] | 7.1
9 | GTAGTGGTTGAATATACACACATATATATATATATA [CACACA_site2651] | 9.4
10 | AGATAATAGGTTACTTGTACATATAAATAAATATAT [XGTACX_site158] | 6.96
11 | ATATTAATTTCTCATGCATGTTCTACCCAATTGTAA [TGCATGCA_site355] | 6.99
12 | AAAAAAAAAAAAAATTCACACAAGACTACTACATTT [CACACA_site4195] | 6.88
13 | TTTTGTTATTATGAAGTGCATTTATGTTCATGTCTA | 8.18
14 | AAAATCTAATATAATGCACACATAAAAAAAAATCAA [CACACA_site9211] | 7.52
15 | ACCCTTTTATATAAGAGTACAAACGTATTATTAAAT [XGTACX_site2221] | 7.23
16 | AATATTAAAAACAAAACACACAAAAAAAAATAAAAT [CACACA_site702] | 6.84
17 | ATATATGACTAATAAAGTACATACTTCATATAATTA [XGTACX_site6699] | 7.06
18 | TATATTATATATATACTGCACTGTTTTACAAAATTA | 8.44
19 | TTTTAGTTATTGTATTATTATTAATATATAATATCT [CACACA_negctrl_site1528] | 6.77
20 | CTAAAATGTAAAAACGCACACATAATATTATAAAAA [CACACA_site2788] | 7.16
21 | AAAGCATGTTAATATGTATAAATACTGATCATTCAC [GTGCAC_negctrl_site576] | 6.99
22 | CTTGTCATTTGGCACACACACATGTATAGGTTATTA [CACACA_site5656] | 7.03
23 | TATATAAATAAACACACACACACCTTATAATTATTA [CACACA_site9345] | 7.1

Row | Sequence | gcPBM binding intensity (ln)
24 | TGAATAAATCAAAGCACACATACACAGACATATATA [CACACA_site4316] | 7.12
25 | TAAAGTTTTTCCTATCTATATTTATATTATAAATGA [XGTACX_negctrl_site20] | 6.78
26 | GTGAGTGAAATATGCAAACACACACCCGAAAAATGT [CACACA_site3197] | 7.14
27 | TATGATTTTAATGAAACACACAATTTTATGTTAATA [CACACA_site311] | 6.66
28 | TATAAAGGTATACAAAGTACAAAATACATATATACT [XGTACX_site6431] | 6.84
29 | TGTGTATAAGTCACTTGTACTAGTAGTAAAAAAAAA [XGTACX_site4341] | 6.85
30 | TAATATATGTTATATACACACATATAAATATAAATA [CACACA_site6339] | 6.93
31 | TGAAGTATAATTTATCTAATATGTTATATTTTATTT [TGCATGCA_negctrl_site56] | 6.39
32 | TTTAATATTATTATTTTACACACTTTTTTCCTTTTA [CACACA_site8780] | 6.64
33 | CAAATAATATTATGAAGTACTTCAAATTTTGAAAGA [XGTACX_site2530] | 6.98
34 | TCTTATAAACTCTGCACACATAATATATTAAATGAG [CACACA_site1936] | 7.35
35 | AATATAGGTATATCCACACACATATTTATATTTATA [CACACA_site6867] | 6.97
36 | AAATAAATAAATAGACGTACAAAAATATTATACATT [XGTACX_site6776] | 6.97
37 | AATAATGAAAAAATGAATAAAATTACTATATAATTC [XGTACX_negctrl_site457] | 6.75
38 | GATATGATGTGTTTGGTAGTTTTTGATGTTGGCATG [GTGCAC_negctrl_site506] | 6.96
39 | TATAAATGTGTATGCGCATGTAAAAATATAATTTAT [TGCATGCA_site750] | 7.33
40 | GTAAATAATAAACACCGTACATGGTATAATTCAATG [XGTACX_site3655] | 6.75
41 | TTTTTCTTATTTGGATTGCACTACATATATATATAT | 9.55
42 | GAACTCATTACAAAGTGTACAAATTAAATAAATGGT [XGTACX_site3995] | 7.13
43 | AGGTGCTTAATATATACACACATACAGATATATATA [CACACA_site5552] | 7.6
44 | AAAATTTTTTGAAATAGTACTTTTTTATATATATAT [XGTACX_site2634] | 9.11
45 | ATAAGGTTACAACAAACACACAAAGGAATATACACA [CACACA_site7840] | 6.95
46 | TATAAATTTATATATGCATGTCAGAAAAAAAAGTAA [TGCATGCA_site414] | 7.26

Row | Sequence | gcPBM binding intensity (ln)
47 | CAACAAAATAAACACACACACACAAACACAAAAAAA [CACACA_site5806] | 7.08
48 | GGATATTAATAAATATGTACATATGTAGATTTATTA [XGTACX_site554] | 7.02
49 | AAGAAAAAAAAAAAAACACACATATATATATATATA [CACACA_site2027] | 9.4
50 | ATATATAAATATATATGTACATAAATATATATCTTT [XGTACX_site6910] | 7.09
51 | TATAAATAGAGGAAGCGTACATATATATATATATAT [XGTACX_site4993] | 9.38
52 | TGTATACCTTAATATACACACATACCTATATTTATA [CACACA_site6746] | 6.87
53 | CCACAGGATTGGTTCAAACACACATATTATATGACT [CACACA_site661] | 6.91
54 | TATTTTTTTTTTTTTTGTACACATAATTGTAATCGT [XGTACX_site8415] | 7.24
55 | CATATAAAAATGTGCACACACACACCGATATATATT [CACACA_site4940] | 9.39
56 | TCACTTTTTATTAAATGTACATGCTTTCATTTTCAT [XGTACX_site8139] | 7.21
57 | TATATATATATATATGTACACACATCAATCATATTA [CACACA_site8594] | 9.57
58 | GAATAAATAATTAACACACACAATCTTTTTTTTTTT [CACACA_site3140] | 6.76
59 | AAAAAAAAAATAAAATAAAATATATTATATATATTA [GTGCAC_negctrl_site431] | 6.58
60 | TGTACGAGTCGTAGAGTGCAGTCTGGAGAAAAGTAC [GTGCAC_site9683] | 8.91
61 | TATATATATATATATACACACTTGTGCAGAATATTA [CACACA_site5257] | 8.94
62 | TTTTGTTATGAGAGGGTGCTAATATTTGGATATAAA | 9
63 | AAAAAAAGAAAAATTGCACACACTTATAAAAATATA [CACACA_site4014] | 6.99
64 | AAAAAAAAAAAAAGTAGTACATAATATGTTCCTCCT [XGTACX_site8356] | 7.16
65 | CCCCCCGTGTTATATACACACATAATCAAATAAAAT [CACACA_site4111] | 9.75
66 | AGAAATAAGAAATATACACACATATATATATATATA [CACACA_site2808] | 9.79
67 | TCTTATTAAAATATTTATATAGGTAATCACAATATT [GTGCAC_negctrl_site568] | 6.95
68 | TATAAAATAAGACATGCATGTTATACATATATATAT [TGCATGCA_site314] | 8.81
69 | TGAACAATGTATAATTGTACGCAACGAAAATAAAAA [XGTACX_site1559] | 7.21

Row | Sequence | gcPBM binding intensity (ln)
70 | ATCATGTTATATATGTGTACATATATATGATATAAT [XGTACX_site991] | 7.18
71 | ATTATAAATTAAAATACACACATATATACCTAATAT [CACACA_site5541] | 7.07
72 | ATATATAATTACACAAATAAAAAAATAAAATGAAAT [CACACA_negctrl_site1513] | 6.85
73 | AGAATAAAAATACAAGCACACATGTATGAAATATAT [CACACA_site3213] | 6.91
74 | AAAAAATAATAATAATGTACAAATAAAATAAAAACA [XGTACX_site6568] | 7.19
75 | AAGGAATATGTATATACACACAGGTACATATATATA [CACACA_site441] | 7.36
76 | TCGTGTGAAAATATTACACACATTTACTATAGTATC [CACACA_site7590] | 6.89
77 | ATAAAAATTGAAACATGTACACATATTCATTTTATA [XGTACX_site7968] | 6.73
78 | ATATATTTTTACCATACACACATATAATAAATATAT [CACACA_site3722] | 7.35
79 | AAAAAAAAAAAAAAATGTACATATATATATATATAT [XGTACX_site876] | 9.33
80 | ATAATAATATTGTGTACACAATAATTTGTCAAATCA [CACACA_site6019] | 7.3
81 | ACATATACAAGACACACACACAACGTTTTAATAAAT [CACACA_site7017] | 7.51
82 | TATTTTTTTCTTACTACACACATATATATGCTTTCC [CACACA_site4058] | 7.3
83 | TTATATTATACATACACACCCATATAACATGTTTTT [CACACA_site6539] | 7.31
84 | TCATTAATATTTCATAGTACAATTTTGTCTAATTGT [XGTACX_site6720] | 6.91
85 | TAATGTTGAGAATTTTGTACATATAGATCAATTTAT [XGTACX_site5426] | 6.84
86 | ATTTATTATGAACATACACACAAAAAAAAAAAGTAT [CACACA_site2054] | 7.13
87 | TAACTTTGAAAAGATGGTACACAATAATATATATAT [XGTACX_site8667] | 8.48
88 | GTATATTTTAATATGACACACATATTATATATATAT [CACACA_site2483] | 8.74
89 | TGACATAAAAAATATACACACTATAATATATATACT [CACACA_site4898] | 6.92
